From PubChem BioAssay AID686978 (National Center for Advancing Translational Sciences (NCATS), 2013)
Out of some 420,000 compounds screened, about 64,000 (15%) were called active. Inconclusive results, whose numbers are uncertain, are shown with a selection of clear calls. The call rests on the fitted dose curve; in most records, active means well fitted inhibition curve with a large enough effect; inconclusive means small, poorly fitted or top-dose-only effect; inactive means flat fitted curve, though single readings scatter. No potency is given beside an inconclusive call; the fits are too rough.

Assay: qHTS for Inhibitors of human tyrosyl-DNA phosphodiesterase 1 (TDP1): qHTS in cells in absence of CPT; further: nearly all actives have a fitted effect of over 55% in size
Settings: DT40 Tdp1-/- hTDP1 cells, no CPT, ATP luminescence, 48 h; activity change, negative = growth inhibition: at 46.2 µM (top of the series) unless noted
Procedure, shortened: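 Chicken DT40 Tdp1-/- cells complemented with human TDP1, screened without camptothecin (DMSO vehicle only), 400 cells/well. Compounds pin-transferred, cells incubated at 37 °C for at least 48 hr. Growth read as ATP-dependent luminescence (CellTiter-Glo, 30 min at RT).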
On the % scale 0 is the no-effect control and ±100 the full control effect; potency means the concentration at half of the fitted maximal effect; tags describe the fitted curve by direction and shape.

SMILES	activity change, negative = growth inhibition	Potency
NC(=O)c1ccc(NC(=O)COC(=O)CCc2ccc(S(=O)(=O)N3CCCCC3)cc2)cc1	inactive: -12.3%	–
C=CCC[C@H](Cc1ccc(F)cc1)C(=O)OC[C@H](Cc1c[nH]c2ccccc12)NC(=O)[C@H](CC=C)CC(=O)NCCO	–	active: 18.4 µM
O=S(=O)(c1ccccc1)c1nc(-c2cccs2)oc1NCc1cccnc1	inactive: -9.41%	–
COc1cc(-c2nc3ccccn3c2/N=C/c2cc(OC)c(OC)c(OC)c2)ccc1O	–	inconclusive [inhibitor, single point]
CCOC(=O)C1CCN(c2cc3c(cc2NC(=O)c2ccccc2Br)n(C)c(=O)n3C)CC1	–	active: 18.4 µM
COc1ccc(N2C(=O)c3ccccc3NC23CCCCC3)cc1	–	inconclusive [inhibitor, single point]
COc1ccc(-c2cn3cccnc3n2)cc1	inactive: -25.2%	–
CC1=C2C3OC(=O)C(C)C3CCC2(C)C=C(Cl)C1=O (configuration not stated)	–	inconclusive [inhibitor, single point]
CC(C)c1ccc(NS(=O)(=O)c2ccc3[nH]cc(C(=O)N4CCCC4)c(=O)c3c2)cc1	inactive: 2.93%	–
Cc1[nH]n(-c2ccccc2)c(=O)c1C(=O)Nc1ccccc1	–	active: 16.4 µM
O=C(Cn1ncc2c3ccccc3n(Cc3ccccc3)c2c1=O)Nc1ccccc1C(F)(F)F	–	inconclusive [inhibitor, partial curve]
NC(=O)c1cccc(-c2ccnc3c2CC(C(=O)NCc2ccco2)O3)c1 (configuration not stated)	–	active: 2.91 µM
C[C@H](CO)N1C[C@H](C)[C@@H](CN(C)S(=O)(=O)c2ccc(Oc3ccccc3)cc2)OCc2cn(nn2)CCCC1=O	inactive: -20.9%	–
O=C(NCc1ccccc1)Nc1cccn(Cc2cccc(F)c2)c1=O	inactive: 4.94%	–
CCOc1ccc(Cl)cc1-c1cc(C(=O)NC2CCCCC2)[nH]n1	–	active: 16.4 µM
CN(C)S(=O)(=O)c1cccc(NC(=O)c2ccc3nccnc3c2)c1	–	active: 23.1 µM
Nn1c(C2CCCCC2)nc2ccccc2c1=O	–	inconclusive [inhibitor, single point]
CC(=O)c1ccc(N2CCN(C(=O)c3ccc(NC(=O)C4CCCO4)cc3)CC2)cc1 (configuration not stated)	inconclusive: -31.9% [inhibitor]	–
CC(=O)C(Cc1ccc(Cl)nc1)(Cc1ccc(Cl)nc1)C(C)=O	inactive: 3.7%	–
CCOC(=O)C1CCCN(C(=O)c2sc3nc(C)nc(N(CC)CC)c3c2C)C1 (configuration not stated)	–	inconclusive [inhibitor, single point]
CSCC[C@H](NC(=O)[C@H](Cc1ccccc1)n1c(=O)[nH]c2ccccc2c1=O)C(=O)N1CCC[C@H]1C(=O)O	inactive: 6.61%	–
O=C(NC1CCCCC1)c1cnn2c(C(F)(F)F)cc(-c3ccco3)nc12	–	inconclusive [inhibitor, single point]
O=C1OC(Sc2ccccc2)(c2ccccc2)c2ccccc21 (configuration not stated)	–	inconclusive [inhibitor, single point]
CCOc1ccc(NC(=O)Nc2ccc3snnc3c2)cc1	–	active: 16.4 µM

SMILES	activity change, negative = growth inhibition	Potency
CC(CNC(=O)CN1C(=O)CCSc2ccccc21)c1ccccc1 (configuration not stated)	inconclusive: -34.5% [inhibitor]	–
Cc1ccc(S(=O)(=O)N2CCOCC2)cc1NC(=O)CNCc1ccc(Cl)cc1Cl	–	active: 16.4 µM
CC(Oc1ccc(Br)cc1)C(=O)NCC(c1cccs1)N1CCOCC1 (configuration not stated)	–	inconclusive [inhibitor, partial curve]
COc1ccc(CN2C(=O)C(CC(=O)NCCc3ccccn3)CC(C(=O)N(C(C)C)C(C)C)=C2C)cc1 (configuration not stated)	inconclusive: -34.5% [inhibitor]	–
CC(C)CNC(=O)c1ccccc1SCC(=O)NC12CC3CC(CC(C3)C1)C2	–	inconclusive [inhibitor, single point]
O=C(O)Cn1ccnc1[N+](=O)[O-]	inactive: -2.51%	–
Cc1ccc(S(=O)(=O)NCC(NCc2ccc(F)cc2)c2ccccc2)cc1 (configuration not stated)	–	inconclusive [inhibitor, single point]
CC(C)C[C@H](NC(=O)OC(C)(C)C)c1nnc(SCc2ccccc2)o1	–	active: 23.1 µM
CCOc1ccc2[nH]c(=O)c(CN(Cc3nnnn3Cc3ccccc3)CC3CCCO3)cc2c1 (configuration not stated)	–	inconclusive [inhibitor, partial curve]
CCOC(=O)N(O)c1ccc(C=Cc2ccccc2)cc1	–	active: 14.6 µM
CC(C)C1CCN(C(=O)C2CCC(=O)N(CCc3ccc(Cl)cc3)C2)CC1 (configuration not stated)	–	inconclusive [inhibitor, single point]
COc1ccc(NC(=O)COC(=O)CO/N=C(\C)c2ccc3c(c2)OCO3)cc1S(N)(=O)=O	inactive: -11.1%	–
C=CCn1c(SCc2ccc(C(=O)Nc3ccccc3)cc2)nnc1-c1ccccc1	–	inconclusive [inhibitor, single point]
CC(C)(C)OC(=O)N[C@H](/C=C/c1ccccc1)C(=O)OC(C)(C)C	–	inconclusive [inhibitor, single point]
CC(C)=NOc1nc(N2CCOCC2)nc(N2CCOCC2)n1	inactive: -5.19%	–
CCc1ccc(CNC(=O)c2ccc3nc(C(C)C)oc3c2)cc1	–	inconclusive [inhibitor, single point]
COc1ccc(OCC(=O)Nn2c(-c3ccc(OC)cc3)nc3ccccc3c2=O)cc1	–	inconclusive [inhibitor, single point]
CC(=O)N(CCc1ccccc1C)Cc1cc2ccc(C)cc2[nH]c1=O	–	inconclusive [inhibitor, partial curve]
O=c1c2ccccc2nc2c3ccccc3c(NCCO)nn12	–	inconclusive [inhibitor, single point]
Cc1ccc(S(=O)c2ccc([N+](=O)[O-])c3nonc23)cc1 (configuration not stated)	–	active: 3.26 µM
CCNC(=O)c1cc2c(c(-c3cccc(-c4ccccc4F)c3)n1)[C@@H](CCO)N(C(=O)CC1CC1)C2	–	inconclusive [inhibitor, single point]
COc1ccc([C@@H]2CC=C(C(=O)O)[C@H](c3ccc(F)cc3)N2S(=O)(=O)c2ccccc2C)cc1	inactive: 3.51%	–
Cn1ccc2c(OCC(=O)NCc3ccccc3Cl)cccc2c1=O	–	active: 18.4 µM
O=C(Nc1ccc(CN2CCS(=O)(=O)CC2)cc1)c1ccc(Cl)cc1	–	inconclusive [inhibitor, single point]

SMILES	activity change, negative = growth inhibition	Potency
CS(=O)(=O)N1CCN(c2ccc(NC(=S)NC(=O)c3ccc4c(c3)OCO4)cc2)CC1	–	inconclusive [inhibitor, single point]
C=C(C)Cc1c(C)c(C#N)c2[nH]c3ccccc3n2c1=O	–	inconclusive [inhibitor, partial curve]
COc1ccccc1/C=N/NC(=O)CSc1cc(C)nc2ccccc12	–	active: 8.2 µM
COc1cccc(-c2ccc3c(c2)C2CC3CCN2C(=O)c2ccc(-c3ccccc3)cc2)c1 (configuration not stated)	–	active: 18.4 µM
Cc1c(C(=O)NCc2ccco2)cnn1-c1ncc2c(n1)-c1ccccc1CC2	–	inconclusive [inhibitor, single point]
CC(=O)c1sc(N/N=C/c2ccc(C(C)C)cc2)nc1C	–	inconclusive [inhibitor, single point]
Cn1cc(-c2ccc(C(=O)NCc3cccc(Cl)c3)c3occc23)cn1	–	inconclusive [inhibitor, single point]
Cc1nn(-c2nc(-c3ccc(F)cc3)cc(C(F)(F)F)n2)c(C)c1Cl	–	active: 18.4 µM
O=C(Nc1ccc2oc(-c3cccnc3)nc2c1)c1ccc(-c2ccccc2)o1	–	active: 9.2 µM
O=C(CSc1nnc(C2CC2)n1C1CC1)c1ccccc1F	–	inconclusive [inhibitor, single point]
O=C1CSc2ccc(C(=O)NCCC3=CCCCC3)cc2N1	–	inconclusive [inhibitor, partial curve]
COc1cc(C2SCC(=O)N2c2nnc(C34CC5CC(CC(C5)C3)C4)s2)cc(OC)c1OC (configuration not stated)	–	inconclusive [inhibitor, single point]
COc1ccccc1/C=C1\SC(=S)N(CCC(=O)NCCc2ccc(O)cc2)C1=O	–	active: 16.4 µM
O=C(CCc1nc2ccccc2c(=O)[nH]1)N1CCN(C/C=C/c2ccccc2)CC1	–	active: 6.51 µM
O=C(COc1ccc(Br)cc1)N(CCO)CCO	inactive: 11.6%	–
CC(=O)c1cccc(N=Nc2c(C)[nH]c3ccccc23)c1	–	inconclusive [inhibitor, partial curve, poor fit]
COc1ccc(N2CCN(C(=O)c3ccc(NC(=O)C4=CSCCO4)cc3)CC2)cc1	–	inconclusive [inhibitor, single point]
Cc1cccc(C)c1N1C(=O)CCC(C)(C)C1=O	inactive: 18.1%	–
COc1ccc(OC(C)c2nc3ccccc3[nH]2)cc1 (configuration not stated)	–	inconclusive [inhibitor, single point]
O=C(NCc1ccc(C(F)(F)F)cc1)c1cccc2c(-c3ccc(F)c(F)c3)coc12	–	inconclusive [inhibitor, single point]
Cc1nn(-c2ccccc2)c(N)c1N=Nc1ccc2ccccc2c1	–	inconclusive [inhibitor, single point]
Cn1c(=O)n(C)c2cc(NC(=O)c3ccccc3[N+](=O)[O-])c(Br)cc21	inconclusive: -31.2% [inhibitor]	–
CCOc1ccc(CC(=O)N2CCN=C2SC)cc1	inactive: -26.6%	–
O=[N+]([O-])c1ccccc1Nc1cccnc1	–	inconclusive [inhibitor, partial curve]
